# Results: the supplement of paper PMC8728848
# The list shows a part of the results.
# B1: rAAL-2 (Agrocybe aegerita) (protein)
# chain: MTSNVITQDLPIPVASRGFADIVGFGLDGVVIGRNAVNLQPFLAVKNFAQNAGGWLTTKHVRLIADTTGTGKGDIVGFGNAGVYVSVNNGKNTFADPPKMVIANFGYDAGGWRVEKHLRYLADIRKIGRADIIGFGEKGVLVSRNNGGLNFGPATLVLKDFGYDAGGWRLDRHLRFLADVTGNGHLDIVGFGDKHVFISRNNGDGTFAPAKSVIDNFCIDAGGWKIGDHPRFVADLTGDGTADIIGCGKAGCWVALNNGGGVFGQVKLVINDFGTDKGWQAAKHPRFIADLTGNGRGDVVGFGNAGVYVALNNGDGTFQSAKLVLKDFGVQQGWTVSKHRRFVVDLTGDGCADIIGFGEKETLVSYNDGKGNFGPVKALTNDFSFSGGKWAPETTVCWMANLDSSRH
# How the values were obtained:
# Assay in all cases: glycan array binding signal (z-score within array); higher = stronger binding
# Conditions in all cases: glycan notation: IUPAC condensed, linker removed
# [1] = biological target: Neu5Ac(a2-8)Neu5Ac(a2-3)[Gal(b1-3)GalNAc(b1-4)]Gal(b1-4)Glc
# How it was run: (§1)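 The binding signal is a Z-score computed within each array and averaged over linkers. Arrays of the same protein sequence at different concentrations or buffers were also averaged together. Data originate from 3228 arrays in the Consortium for Functional Glycomics database, kept only where the protein sequence was available.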
# [2] = biological target: Neu5Ac(a2-8)Neu5Ac(a2-3)[GalNAc(b1-4)]Gal(b1-4)Glc
# How it was run: as §1
# [3] = biological target: Neu5Ac(a2-8)Neu5Ac(a2-8)Neu5Ac
# How it was run: as §1
# [4] = biological target: Neu5Ac(a2-8)Neu5Ac(a2-8)Neu5Ac(a2-3)Gal(b1-4)Glc
# How it was run: as §1
# [5] = biological target: Neu5Ac(a2-8)Neu5Ac(a2-8)Neu5Ac(a2-3)[Gal(b1-3)GalNAc(b1-4)]Gal(b1-4)Glc
# How it was run: as §1
# [6] = biological target: Neu5Ac(a2-8)Neu5Ac(a2-8)Neu5Ac(a2-3)[GalNAc(b1-4)]Gal(b1-4)Glc
# How it was run: as §1
# [7] = biological target: Neu5Ac(a2-8)Neu5Ac(a2-8)Neu5Ac(a2-8)Neu5Ac(a2-3)[GalNAc(b1-4)]Gal(b1-4)Glc
# How it was run: as §1
# [8] = biological target: Neu5Ac(a2-8)Neu5Gc(a2-3)Gal(b1-4)GlcNAc
# How it was run: as §1
# [9] = biological target: Neu5Ac(b2-6)Gal(b1-4)GlcNAc
# How it was run: as §1
# Neu5Ac(b2-6)GalNAc = biological target: Neu5Ac(b2-6)GalNAc
# How it was run: as §1
# [10] = biological target: Neu5Ac9Ac(a2-3)Gal(b1-3)GlcNAc
# How it was run: as §1
# [11] = biological target: Neu5Ac9Ac(a2-3)Gal(b1-4)GlcNAc
# How it was run: as §1
# [12] = biological target: Neu5Ac9Ac(a2-6)Gal(b1-4)GlcNAc
# How it was run: as §1
# [13] = biological target: Neu5Gc(a2-3)Gal(b1-3)GlcNAc
# How it was run: as §1
# [14] = biological target: Neu5Gc(a2-3)Gal(b1-3)[Fuc(a1-4)]GlcNAc
# How it was run: as §1
# Neu5Gc(a2-3)Gal(b1-4)Glc = biological target: Neu5Gc(a2-3)Gal(b1-4)Glc
# How it was run: as §1
# [15] = biological target: Neu5Gc(a2-3)Gal(b1-4)GlcNAc
# How it was run: as §1
# [16] = biological target: Neu5Gc(a2-3)Gal(b1-4)GlcNAc(b1-3)Gal(b1-4)GlcNAc(b1-2)Man(a1-3)[Neu5Gc(a2-3)Gal(b1-4)GlcNAc(b1-3)Gal(b1-4)GlcNAc(b1-2)Man(a1-6)]Man(b1-4)GlcNAc(b1-4)GlcNAc
# How it was run: as §1
# [17] = biological target: Neu5Gc(a2-3)Gal(b1-4)[Fuc(a1-3)]GlcNAc
# How it was run: as §1
# [18] = biological target: Neu5Gc(a2-6)Gal(b1-4)GlcNAc
# How it was run: as §1
# Neu5Gc(a2-6)GalNAc = biological target: Neu5Gc(a2-6)GalNAc
# How it was run: as §1
# [19] = biological target: Neu5Gc(a2-8)Neu5Ac(a2-3)Gal(b1-4)GlcNAc
# How it was run: as §1
# [20] = biological target: Neu5Gc(a2-8)Neu5Gc(a2-3)Gal(b1-4)GlcNAc
# How it was run: as §1
# [21] = biological target: Neu5Gc(a2-8)Neu5Gc(a2-3)Gal(b1-4)GlcNAc(b1-3)Gal(b1-4)GlcNAc
# How it was run: as §1
# [22] = biological target: Neu5Gc(a2-8)Neu5Gc(a2-6)Gal(b1-4)GlcNAc
# How it was run: as §1
# [23] = biological target: Neu5Gc(b2-6)Gal(b1-4)GlcNAc
# How it was run: as §1
binder,measurement,setting,value
B1,glycan array binding signal (z-score),[1],-0.139
same,glycan array binding signal (z-score),[2],-0.331
same,glycan array binding signal (z-score),[3],-0.104
same,glycan array binding signal (z-score),[4],-0.296
same,glycan array binding signal (z-score),[5],-0.542
same,glycan array binding signal (z-score),[6],-0.33
same,glycan array binding signal (z-score),[7],-0.141
same,glycan array binding signal (z-score),[8],-0.124
same,glycan array binding signal (z-score),[9],-0.239
same,glycan array binding signal (z-score),Neu5Ac(b2-6)GalNAc,-0.401
same,glycan array binding signal (z-score),[10],-0.184
same,glycan array binding signal (z-score),[11],-0.139
same,glycan array binding signal (z-score),[12],-0.211
same,glycan array binding signal (z-score),[13],-0.313
same,glycan array binding signal (z-score),[14],-0.347
same,glycan array binding signal (z-score),Neu5Gc(a2-3)Gal(b1-4)Glc,-0.245
same,glycan array binding signal (z-score),[15],-0.263
same,glycan array binding signal (z-score),[16],-0.064
same,glycan array binding signal (z-score),[17],-0.291
same,glycan array binding signal (z-score),[18],-0.326
same,glycan array binding signal (z-score),Neu5Gc(a2-6)GalNAc,-0.28
same,glycan array binding signal (z-score),[19],-0.247
same,glycan array binding signal (z-score),[20],-0.28
same,glycan array binding signal (z-score),[21],-0.178
same,glycan array binding signal (z-score),[22],-0.608
same,glycan array binding signal (z-score),[23],-0.084
